Data published in PubChem BioAssay (NCATS).
Some of the results follow. Further columns of the screen follow, without active or inactive calls. The list favours compounds with an active or inconclusive main result. Words in brackets tell the shape of the fitted curve; partial curves, single points and poor fits give uncertain potencies.

Experiment: qHTS Assay for Lipid Storage Modulators (AID 1519)
Settings: Drosophila S3 cells, BODIPY lipid droplet/cell ratio, laser cytometry, cells loaded with oleic acid
In short: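 Cells seeded at 5,000 per well were treated with compounds over a concentration series and loaded with oleic acid (400 uM, as added). Lipid droplet fluorescence (488 nm excitation, 500-530 nm channel) was read by laser-scanning cytometry and normalized to 20 uM Triacsin C.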

[1] = measured here: cell count channel max response
[2] = measured here: cell number channel AC50
[3] = measured here: lipid (BODIPY) channel AC50
[4] = measured here: lipid channel max response
Tags describe the fitted curve by direction and shape.

SMILES	max response [1] [%]	AC50 [2]	AC50 [3]	max response [4] [%]
CCNc1ncc2nc(-c3ccccc3)c(=O)n(-c3ccc(OC)cc3)c2n1	27.6	2.51 µM [rising, full curve, poor fit]	1.41 µM [rising, full curve, poor fit]	35.2
CNc1nc(-c2cccnc2)nc2ccccc12	32.2	0.316 µM [rising, full curve, poor fit]	0.398 µM [rising, full curve, poor fit]	31.8
CC(C(=O)O)c1ccc2c(c1)[nH]c1ccc(Cl)cc12 (configuration not stated)	33.4	17.8 µM [rising, partial curve, poor fit]	25.1 µM [rising, partial curve, poor fit]	55.5
CN(C)C(=O)c1ccc(-c2ccc3ncnc(Nc4ccc(F)cc4)c3c2)cc1	14.6	3.16 µM [rising, partial curve]	3.98 µM [rising, partial curve]	23.2
O=c1c(-c2ccccc2)nc2cncnc2n1Cc1ccc(F)cc1	16.9	0.0631 µM [rising, full curve, poor fit]	0.0631 µM [rising, full curve, poor fit]	22.4
CC1(C)CC[C@]2(C(=O)O)CC[C@]3(C)C(=CCC4[C@@]5(C)CC[C@H](O)C(C)(C)[C@@H]5CC[C@]43C)C2C1 (some centres not stated)	68.5	15.8 µM [rising, partial curve, poor fit]	17.8 µM [rising, partial curve, poor fit]	88.7
Cn1ccc(O)c(C#N)c1=O	45	39.8 µM [rising, single point]	39.8 µM [rising, single point]	57.7
CC(C)=CCc1c(O)cc2occ(-c3ccc4c(c3)OCO4)c(=O)c2c1O	-64.5	22.4 µM [falling, partial curve]	25.1 µM [falling, single point]	-102
CN(C)c1ncc2nc(-c3cccc(C#N)c3)c(=O)n(C[C@H]3CCCO3)c2n1	31.6	10 µM [rising, partial curve, poor fit]	5.62 µM [rising, partial curve, poor fit]	42.3
COc1ccc2c(=O)c(-c3ccccc3)coc2c1	94.1	6.31 µM [rising, partial curve]	7.94 µM [rising, partial curve]	123
FC(F)(F)c1ccccc1-c1nc(NCc2cccnc2)c2ccccc2n1	39	3.98 µM [rising, full curve]	3.16 µM [rising, full curve]	49.6
O=c1cc(-c2ccccc2O)oc2ccc3ccccc3c12	79.6	10 µM [rising, partial curve]	12.6 µM [rising, partial curve]	102
COc1ccc2[nH]cc(CCNc3cc(-c4ccccc4OC)ncn3)c2c1	9.97	0.398 µM [rising, full curve]	0.355 µM [rising, full curve]	9.44
CC#CCOC(=O)C1=CCCN(C)C1	5.44	15.8 µM [rising, single point]	15.8 µM [rising, single point]	4.84
CC[C@]12CCCN3CCc4c(n(c5ccccc45)C(=O)C1)[C@H]32	64.8	15.8 µM [rising, partial curve, poor fit]	14.1 µM [rising, partial curve, poor fit]	82
c1ccc(CNc2nc(-c3ccoc3)nc3ccccc23)cc1	6.11	0.2 µM [rising, full curve, poor fit]	0.2 µM [rising, full curve]	5.88
c1cc2c(cc1C1CCCCC1)c1c3n2CCN[C@H]3CCC1	34.4	11.2 µM [rising, full curve, poor fit]	11.2 µM [rising, single point]	7.92
O=C1C=CC2=C3c4cc(O)c(O)cc4CC3(O)COC2=C1O (configuration not stated)	33.6	10 µM [rising, partial curve, poor fit]	14.1 µM [rising, partial curve, poor fit]	48.9
